From article PMC12457691
These are yes or no findings as the source states them, for the method shown. For some assays here: Binding seen in cells or lysates may run through a third protein. Some results given as binding are weak or reduced against the parent protein; the word gives no strength. Where a sequence is shown, tags or fusion partners need not be part of it. One block for each binder: values may come before it.

Experiments:
[1] = target: T1, GpsB, fused to the T18 or T25 fragment of adenylate cyclase (pT18-gpsB, pT25-gpsB) (B. subtilis 168) (UniProt P0CI74); test: two-hybrid; bacterial adenylate cyclase two-hybrid (T18 and T25 fusions) in E. coli BTH101; cultures spotted on LB-Agar with 0.5 mM IPTG and 40 ug/ml X-Gal, 30 °C overnight; blue colonies indicate a positive interaction
T1 sequence: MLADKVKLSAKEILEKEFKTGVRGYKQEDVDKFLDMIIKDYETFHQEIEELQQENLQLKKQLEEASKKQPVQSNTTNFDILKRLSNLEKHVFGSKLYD

[2] = target: T2, RodA, fused to the T18 or T25 fragment of adenylate cyclase (pT18-rodA, pT25-rodA) (B. subtilis 168) (UniProt P39604); test: as above
T2 sequence: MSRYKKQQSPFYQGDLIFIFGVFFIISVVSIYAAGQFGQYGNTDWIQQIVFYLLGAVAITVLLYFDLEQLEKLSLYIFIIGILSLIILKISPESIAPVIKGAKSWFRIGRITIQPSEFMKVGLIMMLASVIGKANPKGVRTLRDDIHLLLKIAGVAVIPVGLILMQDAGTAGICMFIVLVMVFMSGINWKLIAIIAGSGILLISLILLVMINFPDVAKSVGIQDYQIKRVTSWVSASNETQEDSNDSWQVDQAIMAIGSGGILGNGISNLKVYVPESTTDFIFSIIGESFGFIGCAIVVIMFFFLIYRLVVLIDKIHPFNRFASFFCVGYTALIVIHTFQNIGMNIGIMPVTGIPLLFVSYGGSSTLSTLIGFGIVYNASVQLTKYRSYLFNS

[3] = target: T3, RodA-GFP (B. subtilis 168) (UniProt P39604); test: co-IP; cells treated with 0.5% formaldehyde for 15 min; membrane proteins solubilised with 0.5% DDM; anti-GFP antibody resin (Chromotek), 2 h at room temperature; elution with SDS sample buffer; western blot with anti-RagB and anti-GFP
T3 sequence: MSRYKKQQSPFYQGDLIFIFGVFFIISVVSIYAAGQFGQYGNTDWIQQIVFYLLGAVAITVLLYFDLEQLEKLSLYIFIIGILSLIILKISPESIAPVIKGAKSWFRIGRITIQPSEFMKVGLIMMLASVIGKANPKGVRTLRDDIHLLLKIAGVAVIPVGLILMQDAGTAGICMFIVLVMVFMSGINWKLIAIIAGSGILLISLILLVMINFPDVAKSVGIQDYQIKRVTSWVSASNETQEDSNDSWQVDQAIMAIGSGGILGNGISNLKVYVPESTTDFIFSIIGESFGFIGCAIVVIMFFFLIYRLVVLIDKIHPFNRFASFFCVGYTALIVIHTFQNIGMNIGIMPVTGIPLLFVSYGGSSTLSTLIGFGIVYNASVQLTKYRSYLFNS

[4] = target: T4, purified recombinant full-length 6His-RagB (B. subtilis 168) (UniProt O32031); test: pull-down; membrane protein extract of B. subtilis SG825 with RodA-GFP (50 mM HEPES pH 8, 200 mM NaCl, 1 mM MgCl2, 1 mM CaCl2, 0.5% DDM) incubated with 100 ug purified 6His-RagB for 1 h at 4 °C, then purified on Ni-NTA resin (buffers with 0.1% DDM); western blot; only the target purified
T4 sequence: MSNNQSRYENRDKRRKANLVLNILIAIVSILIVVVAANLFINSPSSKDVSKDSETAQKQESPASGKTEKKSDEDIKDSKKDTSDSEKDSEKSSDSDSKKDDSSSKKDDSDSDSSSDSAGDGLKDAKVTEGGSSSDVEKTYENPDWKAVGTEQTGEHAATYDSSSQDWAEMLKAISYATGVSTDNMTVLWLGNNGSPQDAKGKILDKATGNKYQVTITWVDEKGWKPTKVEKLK

- binding [1]: binds
- binding [2]: binds
B1: RagB (YrrS), fused to the T25 fragment of adenylate cyclase (pT25-ragB) (protein, UniProt O32031 1-233)
chain: MSNNQSRYENRDKRRKANLVLNILIAIVSILIVVVAANLFINSPSSKDVSKDSETAQKQESPASGKTEKKSDEDIKDSKKDTSDSEKDSEKSSDSDSKKDDSSSKKDDSDSDSSSDSAGDGLKDAKVTEGGSSSDVEKTYENPDWKAVGTEQTGEHAATYDSSSQDWAEMLKAISYATGVSTDNMTVLWLGNNGSPQDAKGKILDKATGNKYQVTITWVDEKGWKPTKVEKLK

- binding [3]: binds
B2: RagB, endogenous in B. subtilis SG818 (protein, UniProt O32031 1-233)
chain: MSNNQSRYENRDKRRKANLVLNILIAIVSILIVVVAANLFINSPSSKDVSKDSETAQKQESPASGKTEKKSDEDIKDSKKDTSDSEKDSEKSSDSDSKKDDSSSKKDDSDSDSSSDSAGDGLKDAKVTEGGSSSDVEKTYENPDWKAVGTEQTGEHAATYDSSSQDWAEMLKAISYATGVSTDNMTVLWLGNNGSPQDAKGKILDKATGNKYQVTITWVDEKGWKPTKVEKLK

- binding [4]: binds
B3: RodA-GFP (protein, UniProt P39604 1-393)
chain: MSRYKKQQSPFYQGDLIFIFGVFFIISVVSIYAAGQFGQYGNTDWIQQIVFYLLGAVAITVLLYFDLEQLEKLSLYIFIIGILSLIILKISPESIAPVIKGAKSWFRIGRITIQPSEFMKVGLIMMLASVIGKANPKGVRTLRDDIHLLLKIAGVAVIPVGLILMQDAGTAGICMFIVLVMVFMSGINWKLIAIIAGSGILLISLILLVMINFPDVAKSVGIQDYQIKRVTSWVSASNETQEDSNDSWQVDQAIMAIGSGGILGNGISNLKVYVPESTTDFIFSIIGESFGFIGCAIVVIMFFFLIYRLVVLIDKIHPFNRFASFFCVGYTALIVIHTFQNIGMNIGIMPVTGIPLLFVSYGGSSTLSTLIGFGIVYNASVQLTKYRSYLFNS

- binding [2]: no binding
B4: GpsB, fused to the T18 or T25 fragment of adenylate cyclase (pT18-gpsB, pT25-gpsB) (protein, UniProt P0CI74 1-98)
chain: MLADKVKLSAKEILEKEFKTGVRGYKQEDVDKFLDMIIKDYETFHQEIEELQQENLQLKKQLEEASKKQPVQSNTTNFDILKRLSNLEKHVFGSKLYD
